Results published in the BET-seq Pho4 binding data (Le et al. 2018).
The other results are listed elsewhere or left out. These are noisy estimates, calculated here from bound and input reads.

These sequences were tested against T1, Pho4 (S. cerevisiae) (UniProt P07270) (assay: relative binding free energy (BET-seq); higher = weaker binding). Conditions: reference: library average.
T1 sequence: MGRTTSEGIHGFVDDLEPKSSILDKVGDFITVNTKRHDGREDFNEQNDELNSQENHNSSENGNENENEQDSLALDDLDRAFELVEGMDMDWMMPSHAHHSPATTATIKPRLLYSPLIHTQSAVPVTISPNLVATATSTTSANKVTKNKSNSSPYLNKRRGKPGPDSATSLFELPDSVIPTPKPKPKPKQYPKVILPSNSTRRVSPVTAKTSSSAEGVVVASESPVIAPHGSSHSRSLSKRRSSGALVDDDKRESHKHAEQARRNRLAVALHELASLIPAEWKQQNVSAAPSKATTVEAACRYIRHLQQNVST
For TGGCACACGTGGGTAA, the “relative binding free energy” value was -0.01 kcal/mol. AAGTTCACGTGGCTTG was tested, and the “relative binding free energy” value was 0.1 kcal/mol. In the case of CTCGGCACGTGGGTAG, the “relative binding free energy” value is reported as -0.27 kcal/mol. For TAGGGCACGTGGGAGT, the “relative binding free energy” value was -0.16 kcal/mol. With TTGTGCACGTGGCGCT the “relative binding free energy” value was -0.15 kcal/mol. For GGTGGCACGTGTCCTG, the “relative binding free energy” value was -0.1 kcal/mol. In the case of TGTGGCACGTGGAAGC, the “relative binding free energy” value is reported as 0.06 kcal/mol. For TTGCGCACGTGGGTGA, the “relative binding free energy” value was -0.24 kcal/mol. With TTTTTCACGTGACTTG the “relative binding free energy” value was 0.41 kcal/mol. For AGTGGCACGTGGTGGT, the “relative binding free energy” value was -0.18 kcal/mol. With TCTTGCACGTGGTTAA the “relative binding free energy” value was -0.05 kcal/mol. GTTATCACGTGATGTG was tested, and the “relative binding free energy” value was 0.38 kcal/mol. For GTAATCACGTGTTATT, the “relative binding free energy” value was 0.13 kcal/mol. GGCTGCACGTGGTGAG was tested, and the “relative binding free energy” value was -0.03 kcal/mol. For TTAGGCACGTGGGGTA, the “relative binding free energy” value was -0.26 kcal/mol. With CGCAGCACGTGGTAGG the “relative binding free energy” value was -0.23 kcal/mol. In the case of TTATGCACGTGAGTCA, the “relative binding free energy” value is reported as 0.11 kcal/mol. With TGTGACACGTGTGGCA the “relative binding free energy” value was 0.15 kcal/mol. With TTGGACACGTGTGTAT the “relative binding free energy” value was 0.15 kcal/mol. In the case of TCATTCACGTGGTTAA, the “relative binding free energy” value is reported as 0.14 kcal/mol. With TGATGCACGTGTTCGT the “relative binding free energy” value was -0.08 kcal/mol. For ATTGTCACGTGTACGT, the “relative binding free energy” value was 0.14 kcal/mol. With TTTAACACGTGGATGG the “relative binding free energy” value was 0.02 kcal/mol. In the case of GTCAGCACGTGATTGT, the “relative binding free energy” value is reported as 0.06 kcal/mol. With ATATGCACGTGGGTGC the “relative binding free energy” value was -0.25 kcal/mol. In the case of TCGACCACGTGGGGGG, the “relative binding free energy” value is reported as -0.26 kcal/mol. In the case of GCAGTCACGTGGGCGT, the “relative binding free energy” value is reported as -0.07 kcal/mol. With GAAGACACGTGCGGGG the “relative binding free energy” value was 0.02 kcal/mol. In the case of ATTGTCACGTGATGTA, the “relative binding free energy” value is reported as 0.24 kcal/mol. With GTTTGCACGTGTCGAG the “relative binding free energy” value was 0.07 kcal/mol. With ATGTGCACGTGACTAG the “relative binding free energy” value was 0.12 kcal/mol. AATTTCACGTGAGTGG was tested, and the “relative binding free energy” value was 0.32 kcal/mol. In the case of TTGAACACGTGTTGTA, the “relative binding free energy” value is reported as -0.05 kcal/mol. With TTTCGCACGTGTGGCT the “relative binding free energy” value was -0.11 kcal/mol. In the case of CATATCACGTGGTGGG, the “relative binding free energy” value is reported as 0.04 kcal/mol. For TAAAACACGTGTTGTT, the “relative binding free energy” value was -0.03 kcal/mol. AGGTGCACGTGAAATT was tested, and the “relative binding free energy” value was 0.2 kcal/mol. For TTGTGCACGTGCTTTT, the “relative binding free energy” value was -0.06 kcal/mol. GGAGTCACGTGTATGA was tested, and the “relative binding free energy” value was 0.25 kcal/mol. In the case of AGTTTCACGTGTTGGT, the “relative binding free energy” value is reported as 0.22 kcal/mol. In the case of GGGGGCACGTGTGGCC, the “relative binding free energy” value is reported as -0.09 kcal/mol. In the case of GTATGCACGTGTAATT, the “relative binding free energy” value is reported as 0.06 kcal/mol. TCTGGCACGTGAATGG was tested, and the “relative binding free energy” value was 0.22 kcal/mol. In the case of GGGGGCACGTGTGAGG, the “relative binding free energy” value is reported as -0.04 kcal/mol. TGTTACACGTGGTGTG was tested, and the “relative binding free energy” value was 0.05 kcal/mol. In the case of ATTGACACGTGAGAAT, the “relative binding free energy” value is reported as 0.38 kcal/mol. With TAAGCCACGTGTTGTG the “relative binding free energy” value was 0.02 kcal/mol. For TCTCTCACGTGGTTTG, the “relative binding free energy” value was 0.18 kcal/mol. In the case of GATCGCACGTGAATGT, the “relative binding free energy” value is reported as 0.3 kcal/mol. For GGGAGCACGTGGTTTT, the “relative binding free energy” value was 0.07 kcal/mol. With GTGTCCACGTGGGGCG the “relative binding free energy” value was -0.15 kcal/mol. For AGGCACACGTGAGTGT, the “relative binding free energy” value was 0.16 kcal/mol. GATGGCACGTGTTCTT was tested, and the “relative binding free energy” value was -0.06 kcal/mol. GATGTCACGTGAGATT was tested, and the “relative binding free energy” value was 0.43 kcal/mol. In the case of GAACGCACGTGGTTGT, the “relative binding free energy” value is reported as -0.04 kcal/mol. In the case of AGTCTCACGTGTCGGG, the “relative binding free energy” value is reported as 0.22 kcal/mol. In the case of GGGCACACGTGTGTGG, the “relative binding free energy” value is reported as 0.17 kcal/mol. In the case of TTTGCCACGTGTATGT, the “relative binding free energy” value is reported as -0.07 kcal/mol. With GGTGTCACGTGCCGGA the “relative binding free energy” value was -0.04 kcal/mol. For CTGGCCACGTGGGGTA, the “relative binding free energy” value was -0.29 kcal/mol. In the case of GGATGCACGTGGTCGG, the “relative binding free energy” value is reported as -0.03 kcal/mol. GTAAACACGTGAGGTT was tested, and the “relative binding free energy” value was 0.3 kcal/mol. With TGAGTCACGTGTTTCT the “relative binding free energy” value was 0.17 kcal/mol. GGTTGCACGTGTCTGG was tested, and the “relative binding free energy” value was 0.11 kcal/mol. For TTAAACACGTGTGTGT, the “relative binding free energy” value was 0.07 kcal/mol. For TATTACACGTGTAAGA, the “relative binding free energy” value was 0.14 kcal/mol. In the case of TTTGTCACGTGTCCGT, the “relative binding free energy” value is reported as 0.11 kcal/mol. AATTGCACGTGGTCAT was tested, and the “relative binding free energy” value was -0.11 kcal/mol. In the case of TGGCGCACGTGTGGGG, the “relative binding free energy” value is reported as -0.05 kcal/mol. With GTGGTCACGTGTGGTC the “relative binding free energy” value was 0.12 kcal/mol. With ATGTTCACGTGTTAGT the “relative binding free energy” value was 0.27 kcal/mol. ATATACACGTGGCTGG was tested, and the “relative binding free energy” value was 0.06 kcal/mol. In the case of CATTCCACGTGGTGTT, the “relative binding free energy” value is reported as 0.03 kcal/mol.
